This note sets out measurements from PubChem BioAssay (NCI).

Test systems include 786-0 renal; DU-145 prostate; HCT-116 colon; MDA-MB-231 breast; MDA-MB-435; NCI/ADR-RES ovarian; OVCAR-8 ovarian; PC-3 prostate; RXF 393 renal; SNB-75 CNS; UACC-62 melanoma.
Test in all cases: growth of human tumour cells (NCI), 48 h

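In this assay, cells in 96-well plates receive the compound at five concentrations for 48 hours. Endpoints are linearly interpolated between the surrounding concentrations. At the GI50, growth is halved.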 Some entries of the source have several records that differ or are many. The other results are left out here. The source may hold further records. Records of one sample usually come from different ranges of test concentrations, which the source does not state; some values may only mark the edge of a range.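 TGI: concentration producing complete growth inhibition.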

Regarding `O=C1C=C(N2CC2)C(=O)C=C1N1CC1`, the GI50 is 7.2 nM [1 test] and 153 nM [mean of 2 tests] in the assay on 786-0 renal; 20.9 nM and 357 nM in the assay with HCT-116 colon; 52.3 nM [1 test] and 809 nM [mean of 2 tests] in the assay with OVCAR-8 ovarian. Also, the TGI was 42.1 nM [1 test] and 438 nM [mean of 2 tests] in the assay with 786-0 renal; 75.3 nM and 2.32 µM in the assay with DU-145 prostate; 402 nM and 10.2 µM in the assay with HCT-116 colon; 297 nM and 5.21 µM in the assay on MDA-MB-231 breast; 70.7 nM and 2.55 µM with MDA-MB-435; 228 nM and 2.52 µM with NCI/ADR-RES ovarian. Moreover, the TGI in the assay on PC-3 prostate was 242 nM and 3.98 µM; in the assay on RXF 393 renal it was 15.6 nM and 165 nM; with SNB-75 CNS it was 72.3 nM and 1.64 µM; in the assay on UACC-62 melanoma, 40.2 nM and 706 nM.
